According to PMC4336329 (PLoS ONE, 2015):
Hit rate of the full screen: of about 310,000 compounds, about 14,000 (4.5%) showed an effect of 50% or more. The effect is printed as a negative number. Some of the results follow.
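Also: peak tail current of the secondary pulse compared with the same well before compound.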

Each compound was assayed against human ether-à-go-go-related gene (hERG) potassium channel (human, UniProt Q12809) (assay: primary screen, population patch clamp on CHO cells stably expressing hERG).
Chain of human ether-à-go-go-related gene (hERG) potassium channel (Q12809 whole entry, looked up): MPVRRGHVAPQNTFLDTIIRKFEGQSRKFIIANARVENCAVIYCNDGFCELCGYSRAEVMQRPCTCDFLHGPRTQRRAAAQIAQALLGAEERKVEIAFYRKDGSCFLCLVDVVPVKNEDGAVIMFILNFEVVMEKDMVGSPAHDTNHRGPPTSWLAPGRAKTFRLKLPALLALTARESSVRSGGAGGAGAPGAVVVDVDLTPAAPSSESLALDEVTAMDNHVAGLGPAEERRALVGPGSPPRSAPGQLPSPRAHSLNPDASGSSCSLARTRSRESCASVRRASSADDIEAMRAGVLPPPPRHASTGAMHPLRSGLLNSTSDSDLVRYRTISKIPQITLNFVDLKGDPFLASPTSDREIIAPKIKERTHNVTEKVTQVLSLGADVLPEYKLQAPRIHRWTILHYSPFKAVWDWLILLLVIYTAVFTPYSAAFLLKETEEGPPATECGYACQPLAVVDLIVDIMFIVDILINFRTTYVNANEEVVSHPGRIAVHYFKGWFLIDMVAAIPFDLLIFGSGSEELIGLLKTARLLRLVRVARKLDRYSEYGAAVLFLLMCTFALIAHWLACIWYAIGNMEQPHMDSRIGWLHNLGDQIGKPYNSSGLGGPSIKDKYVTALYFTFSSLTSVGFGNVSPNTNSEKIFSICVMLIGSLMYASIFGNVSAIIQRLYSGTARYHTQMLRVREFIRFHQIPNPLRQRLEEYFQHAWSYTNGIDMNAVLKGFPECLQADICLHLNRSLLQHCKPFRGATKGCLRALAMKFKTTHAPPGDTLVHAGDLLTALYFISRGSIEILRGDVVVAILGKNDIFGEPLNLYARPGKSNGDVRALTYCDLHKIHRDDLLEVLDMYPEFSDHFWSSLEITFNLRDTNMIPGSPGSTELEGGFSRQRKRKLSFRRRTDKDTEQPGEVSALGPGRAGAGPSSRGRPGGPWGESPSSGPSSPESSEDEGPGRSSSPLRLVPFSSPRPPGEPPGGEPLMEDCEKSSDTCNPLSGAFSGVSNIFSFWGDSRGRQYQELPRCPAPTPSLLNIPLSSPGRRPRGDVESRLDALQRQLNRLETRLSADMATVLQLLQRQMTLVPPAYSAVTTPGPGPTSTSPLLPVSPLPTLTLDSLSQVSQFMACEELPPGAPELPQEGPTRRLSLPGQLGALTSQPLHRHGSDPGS
For `COc1ccccc1C1CC(c2ccc(F)cc2)Nc2ncnn21` (centres unmarked), the “hERG current change (%, negative = inhibition) at 10uM” value was -31.4%. For `Nc1nnc(SCC(=O)N2CCCCC2)s1`, the “hERG current change (%, negative = inhibition) at 10uM” value was 8.09%. In the case of `Cc1ccc(NC(=O)C(Cc2ccccc2)N2C(=O)C3C4CCC(C4)C3C2=O)cc1Cl` (centres unmarked), the “hERG current change (%, negative = inhibition) at 10uM” value is reported as 2.78%. With `COc1ccc(NC(=O)CC2C(=O)N(C)C(=S)N2CCc2ccc(F)cc2)cc1` (centres unmarked) the “hERG current change (%, negative = inhibition) at 10uM” value was -12.6%. In the case of `COc1cccc(C2CC(c3ccccc3C)n3nc(N)nc3N2)c1` (centres unmarked), the “hERG current change (%, negative = inhibition) at 10uM” value is reported as 1.85%. For `COc1cc(N=c2ssnc2Cl)cc(OC)c1`, the “hERG current change (%, negative = inhibition) at 10uM” value was -3.27%. `O=C1CCCN1CCCNc1ncnc2c1cnn2-c1ccc(Cl)cc1` was tested, and the “hERG current change (%, negative = inhibition) at 10uM” value was -36.2%. In the case of `CC(=O)c1sc(NC(=O)CS(=O)(=O)c2ccccc2)nc1C`, the “hERG current change (%, negative = inhibition) at 10uM” value is reported as -25.3%. With `O=C(O)c1cc(S(=O)(=O)N(Cc2ccccc2)c2ccccc2Cl)ccc1Cl` the “hERG current change (%, negative = inhibition) at 10uM” value was 18.2%. For `Cc1cccc(-n2c(O)cnc2Nc2nc(C)cc(C)n2)c1`, the “hERG current change (%, negative = inhibition) at 10uM” value was 3.06%. With `O=C(CSc1nc2ccccc2[nH]1)Nc1ccc(F)c(F)c1` the “hERG current change (%, negative = inhibition) at 10uM” value was 2.2%. In the case of `CCOc1cc(C(=O)OCC(=O)c2cc(C)n(CC3CCCO3)c2C)ccc1OCC(=O)N1CCOCC1` (centres unmarked), the “hERG current change (%, negative = inhibition) at 10uM” value is reported as 31.5%. With `CC(Oc1ccc(S(=O)(=O)N2CCCC2)cc1[N+](=O)[O-])C(=O)NC1(C#N)CCCCC1` (centres unmarked) the “hERG current change (%, negative = inhibition) at 10uM” value was -18.1%. With `CCc1nc2oc3ccccc3c(=O)c2c(=O)n1-c1ccc(C)cc1` the “hERG current change (%, negative = inhibition) at 10uM” value was -2.95%. In the case of `CC(C)NS(=O)(=O)c1ccc(NCCCn2ccnc2)c([N+](=O)[O-])c1`, the “hERG current change (%, negative = inhibition) at 10uM” value is reported as -1.68%. In the case of `CC(C)(O)C#Cc1ccc(C(=O)NCc2cccs2)s1`, the “hERG current change (%, negative = inhibition) at 10uM” value is reported as -8.15%. `N#Cc1ccc(Oc2c(Cl)cncc2Cl)cc1` was tested, and the “hERG current change (%, negative = inhibition) at 10uM” value was -39.9%. In the case of `CC(C)(c1ccccc1)c1ccc(OCCN)cc1.Cl`, the “hERG current change (%, negative = inhibition) at 10uM” value is reported as -20.2%. `O=C(COC(=O)c1ccccc1Cc1ccccc1)NC1CCS(=O)(=O)C1` (centres unmarked) was tested, and the “hERG current change (%, negative = inhibition) at 10uM” value was -3.16%. `O=C(CN(c1ccc(Cl)cc1)S(=O)(=O)c1ccccc1)N/N=C/c1ccco1` was tested, and the “hERG current change (%, negative = inhibition) at 10uM” value was -21.2%. For `CCCCCC1CC(=O)C=C(C)C1C(=O)OC` (centres unmarked), the “hERG current change (%, negative = inhibition) at 10uM” value was -3.74%. `CC(C)c1ccc(/C=N/NC(=O)CC(=O)NC2CCCCC2)cc1` was tested, and the “hERG current change (%, negative = inhibition) at 10uM” value was 10.2%. In the case of `O=C(OCC(=O)N1CCCc2ccccc21)c1cccc(S(=O)(=O)N2CCOCC2)c1`, the “hERG current change (%, negative = inhibition) at 10uM” value is reported as 1.21%. In the case of `CO/N=C/CC(=O)Nc1ccc(F)cc1F`, the “hERG current change (%, negative = inhibition) at 10uM” value is reported as 13.3%. For `C=CCc1cccc2cc(C(=O)Nc3ccc(S(=O)(=O)Nc4nnc(CC)s4)cc3)c(=O)oc12`, the “hERG current change (%, negative = inhibition) at 10uM” value was -15.3%. In the case of `O=Cc1c(Nc2cccc(C(F)(F)F)c2)nc2ccccn2c1=O`, the “hERG current change (%, negative = inhibition) at 10uM” value is reported as -8.04%. `CC(O)CNc1ccc(-c2nn(C)c(=O)c3ccccc23)cc1[N+](=O)[O-]` (centres unmarked) was tested, and the “hERG current change (%, negative = inhibition) at 10uM” value was -0.657%. With `CCCn1c(SCC(=O)Nc2nnc(C)s2)nnc1-c1ccoc1C` the “hERG current change (%, negative = inhibition) at 10uM” value was 3.4%. With `O=[N+]([O-])c1ccccc1S(=O)(=O)N(CC1CO1)c1ccccc1` (centres unmarked) the “hERG current change (%, negative = inhibition) at 10uM” value was 18.4%. For `COc1ccccc1CNC(=S)NCCc1ccccc1`, the “hERG current change (%, negative = inhibition) at 10uM” value was -0.0599%. With `O=C(Nc1ccccc1)Nc1nccs1` the “hERG current change (%, negative = inhibition) at 10uM” value was -0.868%. In the case of `O=C1c2ccc(Oc3ccc4c(c3)C(=O)N(CCCCO)C4=O)cc2C(=O)N1CCCCO`, the “hERG current change (%, negative = inhibition) at 10uM” value is reported as -24.1%. In the case of `COc1ccc(CC(NC(C)=O)C(=O)NC2CCN(C(=O)c3cc(OC)c(OC)c(OC)c3)CC2)cc1` (centres unmarked), the “hERG current change (%, negative = inhibition) at 10uM” value is reported as 14.5%. With `O=C(O)c1ccc2c(c1)C(=O)/C(=C/c1ccccc1)C2=O` the “hERG current change (%, negative = inhibition) at 10uM” value was 27.4%. `CCOC(=O)c1ccc(Nc2nc(C)nc3c2nnn3Cc2ccccc2)cc1` was tested, and the “hERG current change (%, negative = inhibition) at 10uM” value was 9.59%. In the case of `COC(=O)N/N=C(\C)c1ccccc1OC(F)F`, the “hERG current change (%, negative = inhibition) at 10uM” value is reported as 1.52%. In the case of `O=C(NC1CC2CCCC(C1)N2C(=O)Nc1ccccc1)c1ccccc1` (centres unmarked), the “hERG current change (%, negative = inhibition) at 10uM” value is reported as 6.05%. In the case of `CCn1nnnc1SCC(=O)Nc1ccc(F)cc1`, the “hERG current change (%, negative = inhibition) at 10uM” value is reported as 15.1%. In the case of `COc1ccc(C2C(C#N)=C(C)NC(C)=C2C(=O)OC(C)C)c(OC)c1` (centres unmarked), the “hERG current change (%, negative = inhibition) at 10uM” value is reported as -4.94%. `CS(=O)(=O)c1ccccc1C(=O)NCCC(c1ccccc1)c1ccccc1` was tested, and the “hERG current change (%, negative = inhibition) at 10uM” value was -51.9%. In the case of `Cc1ccc(S(=O)(=O)N2CCOC2CNC(=O)C(=O)NCc2ccccn2)cc1` (centres unmarked), the “hERG current change (%, negative = inhibition) at 10uM” value is reported as 0.156%. For `Cc1cc(C(=O)Nc2sc3c(c2C#N)CCCC3)no1`, the “hERG current change (%, negative = inhibition) at 10uM” value was 7.07%. For `O=C(NCc1ccccc1)C(=O)NCC1OCCN1C(=O)c1ccc(Cl)cc1` (centres unmarked), the “hERG current change (%, negative = inhibition) at 10uM” value was -21.3%. In the case of `Cc1nn(C)cc1CNC(=O)c1ccc(Br)o1`, the “hERG current change (%, negative = inhibition) at 10uM” value is reported as 4.51%.
